This is one part of the list. Cleavage of a single-stranded DNA pool by Rep nickase domains was read by sequencing at 3 µM enzyme and 37 °C for 1 h; the strands have 90 letters, of which the middle is given. Numbers give uncut DNA relative to the enzyme-free pool, as log2; the lower, the more was cut; hits are not called. Shares of all reads are compared; uncut strands gain when others are lost, and binding without cutting may add a little.
Assays:
Assay in all cases: uncleaved DNA left, log2 of reads against the no-enzyme library (log2 ratio); higher = less cleavage (more negative = more Rep cleavage of the k-mer); sequences stand for … in CTCGTCCG…ACCGGAGA
[1] = test system: T1, Rep nickase domain of Muscovy duck circovirus
T1 sequence (residues 1-111 of Rep, tag left off): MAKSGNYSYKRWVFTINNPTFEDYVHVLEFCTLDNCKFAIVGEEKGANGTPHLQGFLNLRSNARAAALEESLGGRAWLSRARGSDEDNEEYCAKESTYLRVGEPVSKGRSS
Protocol: (§1)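 A pool of 90-nt single-stranded DNAs with seven random bases just before the constant AC of the nick site (name = the seven bases) was cut by 3 µM recombinant His6-SUMO-tagged Rep nickase domain (300 nM DNA, 50 mM HEPES pH 8.0, 50 mM NaCl, 1 mM MnCl2, 1 h, 37 °C, three replicates). Uncut DNA was amplified and sequenced.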

[2] = test system: T2, Rep nickase domain of banana bunchy top virus
T2 sequence (residues 1-94 of Rep, tag left off): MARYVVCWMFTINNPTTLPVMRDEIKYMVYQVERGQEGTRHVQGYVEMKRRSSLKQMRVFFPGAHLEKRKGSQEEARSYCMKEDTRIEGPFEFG
Protocol: as §1

[3] = test system: T3, Rep nickase domain of cabbage leaf curl virus
T3 sequence (residues 1-116 of Rep, tag left off): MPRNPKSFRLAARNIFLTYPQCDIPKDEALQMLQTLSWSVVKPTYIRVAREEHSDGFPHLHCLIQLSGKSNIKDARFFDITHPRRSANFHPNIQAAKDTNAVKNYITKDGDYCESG
Protocol: as §1

[4] = test system: T4, Rep nickase domain of chickpea chlorotic dwarf virus
T4 sequence (residues 1-124 of Rep, tag left off): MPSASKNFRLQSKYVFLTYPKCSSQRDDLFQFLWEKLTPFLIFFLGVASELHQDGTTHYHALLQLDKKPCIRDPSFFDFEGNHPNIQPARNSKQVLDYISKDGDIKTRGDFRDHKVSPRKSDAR
Protocol: as §1

[5] = test system: T5, Rep nickase domain of faba bean necrotic yellows virus
T5 sequence (residues 1-98 of Rep, tag left off): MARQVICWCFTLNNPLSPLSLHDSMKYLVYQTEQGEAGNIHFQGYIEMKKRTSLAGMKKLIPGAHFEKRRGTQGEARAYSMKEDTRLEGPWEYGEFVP
Protocol: as §1

[6] = test system: T6, Rep nickase domain of maize striate mosaic virus
T6 sequence (residues 1-117 of Rep, tag left off): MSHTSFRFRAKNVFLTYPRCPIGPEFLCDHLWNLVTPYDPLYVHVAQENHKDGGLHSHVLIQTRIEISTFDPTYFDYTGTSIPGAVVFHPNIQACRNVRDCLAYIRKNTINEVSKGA
Protocol: as §1

[7] = test system: T7, Rep nickase domain of porcine circovirus 2
T7 sequence (residues 2-116 of Rep, tag left off): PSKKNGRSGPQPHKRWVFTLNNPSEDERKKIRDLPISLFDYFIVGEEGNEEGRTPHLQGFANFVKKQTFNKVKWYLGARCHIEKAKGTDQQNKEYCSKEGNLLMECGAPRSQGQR
Protocol: as §1

[8] = test system: T8, Rep nickase domain of tomato golden mosaic virus
T8 sequence (residues 1-124 of Rep, tag left off): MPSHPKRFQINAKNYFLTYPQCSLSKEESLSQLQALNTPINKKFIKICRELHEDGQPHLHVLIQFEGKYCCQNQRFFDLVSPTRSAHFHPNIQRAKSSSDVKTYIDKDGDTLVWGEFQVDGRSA
Protocol: as §1

[9] = test system: T9, Rep nickase domain of tomato yellow leaf curl virus
T9 sequence (residues 1-136 of Rep, tag left off): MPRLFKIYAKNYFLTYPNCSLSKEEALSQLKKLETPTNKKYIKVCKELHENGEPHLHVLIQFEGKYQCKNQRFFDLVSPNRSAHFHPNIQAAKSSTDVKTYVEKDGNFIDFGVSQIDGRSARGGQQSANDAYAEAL
Protocol: as §1

[10] = test system: T10, Rep nickase domain of wheat dwarf virus
T10 sequence (residues 1-137 of Rep, tag left off): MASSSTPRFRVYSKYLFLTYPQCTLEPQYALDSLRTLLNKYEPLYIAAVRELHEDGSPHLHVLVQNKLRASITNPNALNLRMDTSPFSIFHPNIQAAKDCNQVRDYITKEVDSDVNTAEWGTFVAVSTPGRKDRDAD
Protocol: as §1

Sequence	uncleaved DNA left (log2) [1]	uncleaved DNA left (log2) [2]	uncleaved DNA left (log2) [3]	uncleaved DNA left (log2) [4]	uncleaved DNA left (log2) [5]	uncleaved DNA left (log2) [6]	uncleaved DNA left (log2) [7]	uncleaved DNA left (log2) [8]	uncleaved DNA left (log2) [9]	uncleaved DNA left (log2) [10]
TCATCGT	-0.0655	-0.0825	-0.515	-1.33	-0.0952	-1.17	-0.171	-0.159	-0.237	-0.164
GACGTCG	-0.0507	0.0375	-0.692	-0.381	-0.0655	-0.823	0.0715	-0.0995	0.0727	-0.0266
GCGCGCC	-0.033	-0.231	-0.257	-0.121	-0.212	-0.29	-0.0813	-0.281	-0.249	-0.17
TCATTGT	-0.233	-0.0264	-1.03	-1.26	-0.0707	-1.25	-0.099	–	-0.0196	-0.205
CGATACA	0.0844	0.159	0.165	-1.03	0.024	0.252	0.103	–	0.0809	0.192
CAATCTG	0.00034	-0.115	-0.154	0.324	-0.0613	0.0628	0.0132	-0.00259	-0.0174	-0.0739
AGTCAGC	0.0847	0.0827	-0.131	-0.215	0.211	-0.693	0.115	0.0577	0.0543	0.154
TCCTGGG	-0.0499	-0.0675	-0.35	-0.372	0.0273	-0.74	0.191	0.0404	0.0109	0.0337
ATTGCTT	0.125	0.126	-0.422	-1.45	0.119	-0.897	-0.234	0.0517	0.267	-0.017
CAGGTCG	0.0794	0.0532	-0.751	-0.485	0.103	-1.07	-0.0108	-0.118	0.0959	-0.02
AACTAGT	-3.6	-2.78	-0.668	-1.92	-0.03	-1.03	-3.99	0.00472	-0.0026	-0.127
GAGCCCC	-0.126	-0.0539	0.164	0.657	-0.184	0.856	-0.0548	-0.0179	0.00967	-0.0165
GATGCTC	0.0377	0.0627	0.258	0.276	0.0657	0.197	0.0427	–	0.184	0.0398
TGTAGAT	-0.00729	0.0355	0.219	0.764	-0.0902	1.3	-0.075	-0.0195	-0.173	-0.0228
TAGACGA	0.0296	-0.0236	0.125	0.33	-0.119	0.0386	-0.0313	–	-0.0576	-0.0455
GCTCTGT	0.107	-0.0372	0.172	0.312	0.14	0.124	-0.0135	-0.0194	-0.0432	-0.0195

Sequence	uncleaved DNA left (log2) [1]	uncleaved DNA left (log2) [2]	uncleaved DNA left (log2) [3]	uncleaved DNA left (log2) [4]	uncleaved DNA left (log2) [5]	uncleaved DNA left (log2) [6]	uncleaved DNA left (log2) [7]	uncleaved DNA left (log2) [8]	uncleaved DNA left (log2) [9]	uncleaved DNA left (log2) [10]
CCGCCGC	0.0862	0.0397	-0.29	-0.598	0.0297	-0.539	0.159	–	-0.0347	-0.233
CATCCTA	-0.228	-0.0504	-0.141	-2.15	-0.0678	-0.748	-0.233	-0.0741	-0.0043	0.0176
GATTCCT	-2.84	-2.75	0.0189	-1.87	-0.184	0.83	-3.29	-0.209	0.0163	-0.115
TGCAAAG	0.166	0.0905	-0.567	-0.44	0.155	-1.07	0.207	0.176	0.0464	0.135
GTTCACC	-0.108	0.00448	0.254	0.669	-0.0843	1.49	-0.0898	-0.0609	-0.0762	0.0362
TTTACCG	-0.0629	0.00891	-0.682	-0.209	0.0175	-0.179	-0.102	-0.0794	-0.0251	-0.119
ACGCATA	0.00116	-0.117	-0.212	-0.823	-0.051	-0.75	-0.0261	–	-0.109	-0.0327
GGTTACG	0.147	0.0757	-0.435	-0.298	0.0705	-0.378	0.239	0.109	0.082	0.0216
GTGGTGC	0.0499	-0.0555	0.2	0.584	-0.0398	1.28	0.0512	-0.0197	-0.00108	-0.0723
AGTCGAA	0.0913	-0.0286	-0.0303	0.183	0.0141	-0.136	-0.48	–	-0.0925	-0.0173
GGCGCGC	-0.172	-0.103	-0.11	-0.077	-0.1	0.082	-0.113	–	-0.171	-0.105
TGCATGC	0.186	0.0791	-0.0636	-0.108	-0.0283	-0.764	0.295	–	0.155	-0.0151
GTGTTTT	-0.288	0.0834	0.384	0.749	-0.0599	1.81	-2.1	–	0.0876	0.0836
CCGGTCA	-0.00768	-0.0471	0.177	-0.0114	-0.0547	0.499	-0.109	–	-0.0041	-0.0702
ACATCCC	-0.125	-0.121	-0.251	0.155	-0.0698	-0.125	-0.0774	–	-0.153	-0.0536
GGCTTCT	-0.231	0.0475	0.21	0.415	-0.019	1.45	-1.35	–	0.0389	-0.046
